From the RNAGym collection of RNA variant scans (doi:10.1093/nar/gkz1192) come the findings set out here.

To fix the notation:
B1: CPEB3 Ribozyme (parent)
chain: UAACAGGGGGCCACAGCAGAAGCGUUCACGUCGCAGCCCCUGUCAGAUUCUGGUGAAUCUGCGAAUUCUGCUGUAUAUCUC

The source gives no read counts; variants with many changes may rest on few reads.

Variants of B1 are the subject of this data set. In words: self-cleavage, relative activity (ratio to wild type); higher = more cleavage; in vitro, sequencing. In outline:
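Relative activity compares each variant's cleaved/total read fraction with that of the unmutated ribozyme. To get these fractions, barcoded CPEB3 ribozyme libraries from rounds of error-prone PCR were transcribed with T7 RNA polymerase for 5 hours at 37°C and then given 15 min of DNase I treatment before EDTA was added. The RNAs were reverse transcribed with template switching and sequenced on Illumina, and DNA sequencing linked barcodes to variants. A minimum of 5 reads applied, and three batches were averaged.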
Consider U25C U54C A65C, for which the self-cleavage is 0.36.

U25C U54C A65U: the self-cleavage came to 0.1.

Take U26A A56U A57G U66A: the self-cleavage was 0.13.

Turning to U25G A35U U67A, the self-cleavage is 0.18.

As to U25G A45G U58C, the self-cleavage is 0.14.

U26A U31C G33A U51A U58C U72A: the self-cleavage worked out at 0.12.

As to U26A U31C U43A A75U, the self-cleavage was 0.16.

For the variant U26A A56U U80G, the self-cleavage was 0.46.

Regarding U26A A35G G53A A56G A57G, the self-cleavage was determined as 1.04.

In the case of U25G U48C A64G U69A U78C C81U, the self-cleavage is 0.06.

Turning to U25C U54C A57G, the self-cleavage is 0.45.

Consider U25C U49C U54A, for which the self-cleavage was determined as 0.15.

As for U25C U49C U54C, the self-cleavage was 0.08.

Turning to U26A A47G U51C U72A, the self-cleavage amounted to 0.41.

For U26A C27U U51G, the self-cleavage came out at 0.3.

In the case of U25C U60C C62U G70A, the self-cleavage came out at 0.09.

With U25C U51C U58A, the self-cleavage was determined as 0.2.

With U25C U51C U58G, the self-cleavage is 0.16.

As for U25C U67C U72C, the self-cleavage was 0.19.

Consider U25C U67C U72A, for which the self-cleavage worked out at 0.07.

As for U26A A57G U69C, the self-cleavage is 0.3.

Regarding U26A A47G U72C, the self-cleavage is 0.99.

As for U26A U41A U43A U54C, the self-cleavage is 0.4.

On to U26A C40U U72G, for which the self-cleavage was found to be 0.37.

As for U26A C40A G55U U69C U78C, the self-cleavage was determined as 0.07.

As to U26A U41A A64U, the self-cleavage amounted to 0.31.

For U26A C50U U51A A56G U66A, the self-cleavage stood at 0.15.

With U26A A56G U69C, the self-cleavage came out at 0.28.

U25C U72C U76C: the self-cleavage is 0.19.

Consider U26A A45U U54G G61C C62U U67C U69C, for which the self-cleavage stood at 0.06.

For the variant U26A A35U U51C A65G U66C, the self-cleavage was 0.1.

In the case of U25C U72A U78A, the self-cleavage is 0.17.

Take U26A U31C U41C A45U A57G: the self-cleavage is 0.16.

For the variant U26A A56G A64G, the self-cleavage turned out to be 0.65.

For U25C U69A U76A U78C, the self-cleavage came out at 0.25.

In the case of U25G U26A U43C U48C A64G, the self-cleavage came out at 0.05.

U26A A57G C68U: the self-cleavage was 0.67.

Regarding U26A A57C A64C U69C, the self-cleavage came to 0.13.

Regarding U26A A45U A64G A65G U66C U74A, the self-cleavage came to 0.12.

For the variant U25G U54A U58C U66C, the self-cleavage was found to be 0.13.

Take U26A U41A U51C A57G A64G: the self-cleavage worked out at 0.2.

Consider U25G G30A A57G U58C G70C, for which the self-cleavage is 0.08.

Turning to U26A A28G A45G U74C, the self-cleavage was 0.5.

In the case of U25G A35G U60C, the self-cleavage was found to be 0.42.

With U26A U31A U51A, the self-cleavage was 0.54.

Turning to U25G A45G U60C, the self-cleavage was 0.37.

With U25G C34G A64G, the self-cleavage amounted to 0.12.

For the variant U26A G52C A56G, the self-cleavage is 1.02.

Turning to U25C U60C U69C G70A, the self-cleavage is 0.12.

On to U26A C29A U69A, for which the self-cleavage came to 0.21.

As to U26A A28G A77G, the self-cleavage came out at 0.41.

With U25C U72A G73U, the self-cleavage worked out at 0.39.

Turning to U26A A35C U41A A64U G73A U78C, the self-cleavage is 0.1.

U26A U31C C34U A65G: the self-cleavage stood at 0.14.

As to U26A C27G U49A U51A A64G U67C, the self-cleavage came to 0.06.

Turning to U26A A28U A56G, the self-cleavage worked out at 0.54.

On to U26A A35G A57G A65G, for which the self-cleavage amounted to 0.92.

For U26A A45U G46U A65U, the self-cleavage came to 0.16.

Regarding U26A A35G C37U U60C U66C U76C, the self-cleavage is 0.09.

Take U25C U51C U60C: the self-cleavage was determined as 0.08.

In the case of U26A A35U A64G, the self-cleavage was 0.25.

Regarding U25C U69C U72C U78C, the self-cleavage was found to be 0.06.

As for U25C U54A U66C, the self-cleavage came to 0.18.

Turning to U25C U49C U54C C59U, the self-cleavage was found to be 0.14.

Turning to U26A A56G C68U, the self-cleavage amounted to 0.23.

U26A A45G A56G A65G G70A: the self-cleavage worked out at 0.12.

For U26A A28G C39G, the self-cleavage was 0.05.

As to U26A A47G U51C U76C, the self-cleavage stood at 1.02.

For U26A G61A C81U, the self-cleavage is 0.83.

Turning to U26A U31C U41C U72C, the self-cleavage was 0.41.

As to U25G C27U U31A C44U A64U U76C, the self-cleavage is 0.11.

U26A A64G U66C: the self-cleavage was 0.17.

For U26A U31C U74C, the self-cleavage was determined as 1.03.

On to U25C U51C A64G, for which the self-cleavage was 0.56.

Turning to U26A A28G U60A A75G, the self-cleavage came to 0.12.

On to U25C U49C U58G C59U U80C, for which the self-cleavage turned out to be 0.05.

As for U25C U60C U74A U80A, the self-cleavage amounted to 0.4.

In the case of U26A A56G A77G U80C, the self-cleavage is 0.5.

U26A G36U C40U: the self-cleavage worked out at 0.15.

With U26A A28G A56U U58A, the self-cleavage came out at 0.14.

As to U26A A47G U67C, the self-cleavage stood at 0.24.

For U26A G42A U58C A77U, the self-cleavage worked out at 0.05.

In the case of U26A A65G U66C A75U A77G, the self-cleavage worked out at 0.06.

With U25G A47G U74C, the self-cleavage stood at 0.29.

As for U26A A35U U67C C81U, the self-cleavage stood at 0.09.

With U26A A35G U58C A77G, the self-cleavage was 1.22.

Regarding U26A A45G U49C U58C, the self-cleavage was 0.11.

As for U25C U60C U74C U78C, the self-cleavage amounted to 0.17.

As to U26A A35C U54C A65C, the self-cleavage was 0.09.

For U25G C32A A45U, the self-cleavage came to 0.14.

Regarding U26A A47G U60A A65U, the self-cleavage came to 0.18.

As to U25C U66C U80C, the self-cleavage was determined as 0.47.

For the variant U25C U49C U69C, the self-cleavage was 0.11.

For the variant U26A A28G G36C, the self-cleavage stood at 0.19.

U25C U67C U69C: the self-cleavage is 0.15.

Consider U25C U49C U51A A56U, for which the self-cleavage stood at 0.18.

U25G U31C U76A: the self-cleavage was found to be 0.12.

As to U25G A35U A65C A77G, the self-cleavage was 0.09.

With U26A G46A C50G A57G, the self-cleavage turned out to be 0.12.

In the case of U26A G42A A45G A56G, the self-cleavage was found to be 0.09.

On to U25G U26C C39U U41A A45U U51A U67C, for which the self-cleavage came to 0.12.

For the variant U25G U43C A47U A64G, the self-cleavage was 0.08.

As for U26A C38U A56G A65G, the self-cleavage was determined as 0.07.

Take U26A C39U U78C: the self-cleavage turned out to be 0.33.

For the variant U25C U67C A75U, the self-cleavage is 0.17.

Take U25G U26A A35G A47U A56G C59U A65G: the self-cleavage stood at 0.17.

For the variant U26A A35G A56G A57G, the self-cleavage came to 1.12.

In the case of U26A C38G U41C A45U, the self-cleavage was determined as 0.16.

For the variant U26A A28G U51C G63U U78C U80C, the self-cleavage stood at 0.26.

On to U26A A35G U66C G70A, for which the self-cleavage was 0.37.

U26A U31A C39U U43C G55C A57G: the self-cleavage worked out at 0.12.

In the case of U25G A45U A57G, the self-cleavage turned out to be 0.07.

Take U26A A28G C50G: the self-cleavage was determined as 0.09.

In the case of U25G U43C U69C, the self-cleavage came out at 0.12.

Regarding U26A G30A U31C A56G G61C G63U, the self-cleavage was determined as 0.06.

Take U25C U51A U66C U74A: the self-cleavage was 0.08.

U26A C29A A57G: the self-cleavage was determined as 0.13.

For U25C U54A A56G, the self-cleavage amounted to 0.2.

With U25G A45U U60C, the self-cleavage was 0.07.

Consider U26A C59A G73A, for which the self-cleavage was 0.52.

Regarding U25C U60C U72C, the self-cleavage is 0.15.

U25G U31C U51A: the self-cleavage was found to be 0.18.

As for U26A A28G A35U U51C U80A, the self-cleavage was found to be 0.11.

U25G U26G U41C A47G: the self-cleavage was 0.1.

In the case of U25C U78A U80C, the self-cleavage came to 0.18.

U25C U51G U67C: the self-cleavage stood at 0.08.

Take U26A G36A U41C A45G U67A: the self-cleavage amounted to 0.22.

For the variant U25C U60A U78C, the self-cleavage was 0.17.

With U25C U54A A56U U69C, the self-cleavage is 0.07.

For U26A A28U A45U U49C U54C U58C A77G, the self-cleavage is 0.1.

In the case of U26A A56G U72A, the self-cleavage stood at 0.26.

With U26A G30A A35G U41A G42U U78A, the self-cleavage came to 0.18.

For the variant U25C U58C A65G U78C U80C, the self-cleavage came out at 0.17.

On to U25C U51C U60A U69C, for which the self-cleavage is 0.11.

On to U25C U69A U80A, for which the self-cleavage amounted to 0.21.

On to U25C U66C U72G U80C, for which the self-cleavage came to 0.42.

With U25G C44A A64G, the self-cleavage is 0.56.

Turning to U26A C40A A45G, the self-cleavage was determined as 0.16.

As to U26A A45U A56G, the self-cleavage was 0.32.

U26A A56G U60C: the self-cleavage came to 0.45.

Take U26A A28U U51A A64G: the self-cleavage worked out at 0.36.

For U26A A45U A47U U60A, the self-cleavage was determined as 0.69.

For U25G U31C U41C U78C, the self-cleavage turned out to be 0.08.

Turning to U25C U67A U80C, the self-cleavage was 0.08.

For the variant U25G U49C A57G, the self-cleavage is 0.13.

For U26A U31A U43C G55C A57G U78C, the self-cleavage is 0.08.

In the case of U25C U58C U76C, the self-cleavage was found to be 0.16.

As for U26A C29U C34U U43C U48C U78C, the self-cleavage amounted to 0.05.

Take U25C U54C A64U U67C U80A: the self-cleavage turned out to be 0.14.

As to U25C U54A U72C, the self-cleavage stood at 0.27.

With U26A A47G G63A A64G U66C U78C, the self-cleavage was determined as 0.08.

For the variant U26A U41A U51C U66C U67C, the self-cleavage was 0.32.

Turning to U26A A45C A65G U72C, the self-cleavage was found to be 0.19.

U26A A45C U76A: the self-cleavage was 0.32.

Regarding U26A A35U A75G C79U, the self-cleavage came out at 0.21.

For U26A A35G U54A U58C U60C A65G U72A, the self-cleavage was 0.58.

In the case of U25C U76C A77G, the self-cleavage was found to be 0.45.

With U26A A45G U78C, the self-cleavage is 0.55.

With U25C U66C A75U, the self-cleavage was 0.32.

With U26A A45U U51C A57U G63C A64G, the self-cleavage stood at 0.04.

As to U26A A35G U54C U72C, the self-cleavage came out at 1.26.

As to U26A A45G U74C, the self-cleavage came to 1.07.

As for U26A G42A A57G, the self-cleavage came out at 0.11.

As to U25C U49C U80C, the self-cleavage amounted to 0.73.

With U26A U41C A45U G61A, the self-cleavage was 0.21.

Take U26A A35U U67C: the self-cleavage was determined as 0.15.

Consider U26A A35G U67A, for which the self-cleavage stood at 1.38.
